Results taken from the supplement of paper PMC3353916.
± gives the standard deviation of the averaged measurements.

Test system: Sindbis virus TE/5'2J-GFP
Experiment: percent infected (GFP+ in RFP+ ISG-expressing cells); higher = more infection (less antiviral activity)
Description: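 Confirmatory testing of 87 ISGs. Triplicate wells of BHK/HA-Zeo (control) or BHK/NZAP-Zeo (ZAP) cells were transduced with lentiviruses co-expressing a human ISG plus TagRFP, then infected 48 h later with SINV TE/5'2J-GFP (moi 5). The % GFP+ cells among RFP+ cells was measured by flow cytometry at 8 h post infection. Fluc lentivirus served as control. Three independent experiments.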

[1] = experiment: confirmatory screen 1, BHK/HA-Zeo (control)
[2] = experiment: confirmatory screen 1, BHK/NZAP-Zeo (ZAP)
[3] = experiment: confirmatory screen 2, BHK/HA-Zeo (control)
[4] = experiment: confirmatory screen 2, BHK/NZAP-Zeo (ZAP)
[5] = experiment: confirmatory screen 3, BHK/HA-Zeo (control)
[6] = experiment: confirmatory screen 3, BHK/NZAP-Zeo (ZAP)
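Further: Interferon-defective BHK-21 derivatives, ZAP line overexpressing the rat ZAP N-terminal zinc finger domain fused to Zeocin resistance, GFP scored within live singlet TagRFP+ cells.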

| Substance | percent infected [1] [%] | percent infected [2] [%] | percent infected [3] [%] | percent infected [4] [%] | percent infected [5] [%] | percent infected [6] [%] |
| --- | --- | --- | --- | --- | --- | --- |
| CXCL10 (no sequence given) | 95.6 ± 1.7 | 85.71 ± 0.65 | 95.22 ± 0.18 | 94.02 ± 0.3 | 92.28 ± 0.59 | 92.05 ± 0.13 |
| ISG15 (no sequence given) | 94.6 ± 1.1 | 83.8 ± 2 | 95.82 ± 0.47 | 93.84 ± 0.38 | 94.41 ± 0.1 | 92 ± 0.57 |
